Here are results for three compounds from patent publication US12583836B2 (Anaxis Pharma Pty Ltd, priority 2020, dated 2026).

Assay [1] relates to U937 human histiocytic leukemia cell line. The assay is described as follows: Inhibition of TSQ induced necroptosis, 384 well plate format (CellTitre-Glo). The note with it: Homo sapiens, U-937; U937 cells, TSQ cocktail (TNF, Smac mimetic, Q-VD-OPh), CelltiterGlo; read-out: Inhibition of TSQ-induced necroptosis (IC50 cell-based assay). How it is done: […] ASSAY: Screening compounds for inhibition of TSQ induced necroptosis, 384 well plate format.
Cell Line ID: U937 human histiocytic leukemia cell line.
Cell Concentration (cells/well): Final cell density is 20000 cells per well.
Cell growth medium: HT-RPMI medium+7.4% Fetal Bovine Serum (FBS). Cells are cultured in Corning 150 cm^2 tissue culture flasks with vented caps at 37° C./5% CO2.
Incubation: Plates were incubated at 37° C./5% CO2 in a humidified incubator for 48 hours following addition of compounds and death stimuli (TSQ cocktail).
Compound concentration: 36 μM starting concentration, 1:3 dilution, 10 point
DMSO final concentration (% v/v): 0.3%.
Compounds in TSQ cocktail (T: TNF; S: Smac mimetic; Q: Q-VD-OPh) and their final concentrations:
hTNF-Fc (100 ng/ml)—produced by standard procedures as shown in Bossen et al., J Biol Chem, 2006, 281(20), 13964-13971.
Compound A (500 nM)—Smac mimetic, Tetralogic and SYNthesis med chem
Q-VD-OPh (10 μM)—MP Biomedicals
The cellular assay was carried out according to the following steps: • 1. Each well was prepared by sequential addition of: • a. […] Read luminescence readout on a plate reader. […]
Percent viability was calculated for each compound according to equation (2):
[formula] • wherein • RawData is the readout of any cell containing a compound of the invention • TA is the total activity provided by the luminescence readout from DMSO only wells (columns 2 and 24)=100% viability • NSA is the non-specific activity provided by DMSO+TSQ wells (columns 1 and 23)=0% viability […]
Assay involving the TSQ cocktail (T: TNF; S: Smac mimetic; Q: Q-VD-OPh): TSQ treatment ensures that cells specifically undergo necroptotic cell death. […] The compounds' activity (solution in DMSO) tested in this TSQ-induced assay was evaluated by determining the number of viable cells in culture by measuring the amount of ATP present as measured by CelltiterGlo.

The next assay relates to U937 cells. The assay is described as follows: Counter screen: cell viability without the TSQ cocktail (CelltiterGlo). Set-up: species or system human. The note with it: Homo sapiens, U-937, cell viability by CelltiterGlo, read-out: Off-target effect (IC50 cell-based assay). As for the experimental part:
Counter screen: In parallel, all compounds were tested for their ability to affect cell viability. The same U937 cells were treated with compound in DMSO without the TSQ cocktail. This counter screen enabled evaluation of off-target effects. In this case, cell viability was measured by CelltiterGlo.
On the technique in general: The purpose of a counterscreen is to sort out artefacts and off-target activity.

Take `Cc1cnc(Nc2[nH]nc(-c3ccc(NS(=O)(=O)C(F)F)c(OCc4ccc(F)c(F)c4)c3)c2C(N)=O)cn1` [Compound 291, 3-(3-((3,4-difluorobenzyl)oxy)-4-((difluoromethyl)sulfonamido)phenyl)-5-((5-methylpyrazin-2-yl)amino)-1H-pyrazole-4-carboxamide]: the values for the IC50 (in assay [1]; with U937 cells) were less than 10 nM and 1000 to 30000 nM, respectively.
The matching figures for `C[C@H](Oc1cc(-c2n[nH]c(Nc3cnn(C4CCOCC4)c3)c2C(N)=O)ccc1NS(=O)(=O)C(F)F)c1ccc(F)cc1` [Compound 306, (S)-3-(4-((difluoromethyl)sulfonamido)-3-(1-(4-fluorophenyl)ethoxy)phenyl)-5-((1-(tetrahydro-2H-pyran-4-yl)-1H-pyrazol-4-yl)amino)-1H-pyrazole-4-carboxamide]: 10 to 1000 nM and more than 30000 nM.
The matching figures for `C[C@H](Oc1cc(-c2n[nH]c(Nc3cc(C4CCOCC4)on3)c2C(N)=O)ccc1NS(=O)(=O)C(F)F)c1ccc(F)cc1` [Compound 303, (S)-3-(4-((difluoromethyl)sulfonamido)-3-(1-(4-fluorophenyl)ethoxy)phenyl)-5-((5-(tetrahydro-2H-pyran-4-yl)isoxazol-3-yl)amino)-1H-pyrazole-4-carboxamide]: 10 to 1000 nM and more than 30000 nM.
